According to PubChem BioAssay (NCI):
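Assay format: 96-well plates, 48-hour exposure. The concentration for 50% growth inhibition is given as GI50. Definition used: TGI = concentration required for complete inhibition of growth.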

system: NCI-H322M lung; test: DTP human tumour cell line panel, 48 h

| SMILES | GI50 [µM] | TGI [µM] |
| --- | --- | --- |
| COc1ccccc1NC(=O)c1ccc(NC(=O)CCl)s1 | > 100 | > 100 |
| O=C(NN1C(=O)/C(=C/C=C/c2ccc([N+](=O)[O-])o2)SC1=S)c1ccccc1O | 2.51 | 7.95 |
| COc1ccc(NC2=C(I)C(=O)C(C)=C(C)C2=O)cc1 | 15.4 | 30.1 |
| CN1CCc2c(sc3ncnc(N/N=C/c4cn(-c5ccccc5)nc4-c4ccc(Cl)cc4)c23)C1 | 0.318 | > 100 |
| COc1sc(/C=N/NC(=O)c2[nH]c3ccc(Br)cc3c2-c2ccccc2)cc1Cl | 4.18 | > 100 |
